Values after ≈ are worked out from the molar mass of the structure shown.
Assays:
[1] = tested on: Lactobacillus mali DSM20444 crude enzyme solution; test: Transglycosylation of steviol glycosides by crude enzyme solution (HPLC); conditions: steviol glycoside and sucrose 10% each, pH 5.0, 40°C, 24 hours
[2] = tested on: Lactobacillus mali CJST01 crude enzyme solution; test: as above; assay type: biochemical; conditions: steviol glycoside and sucrose 10% each, pH 5.0, 40°C, 24 hours
Protocol: Specifically, 12 kinds of steviol glycosides (stevioside, rebaudioside A, B, C, D, E, F, M, N, dulcoside A, steviolbioside, rubusoside) and sucrose (CJ CheilJedang) were added to 50 µM sodium acetate buffer (pH 5.0) by 10% each, and the crude enzyme solution of the Lactobacillus mali 2 kinds of strains prepared in Example 3 was added and reacted at 40°C for 24 hours. […]

[3] = Solubility in distilled water; conditions: incubated 4 days
[4] = Paired Comparison Test: concentration corresponding to the same sweetness level; conditions: concentration (w/w) in drinking purified water at the same sweetness level, based on the RM concentration; 100 consumers
Protocol: Specifically, the present evaluation was performed by descriptive analysis by recruiting professional sensory panels, and in advance, the concentration corresponding to the same sweetness level was calculated for 100 sweetness-sensitive female consumers between ages of 19 and 40. Then, the consumers were asked to select the closest concentration by phasing the CJ and A14 sample concentrations into quintiles based on the RM concentration. The manufacturing method was to prepare the corresponding substance in a state that drinking was possible by dissolving it in drinking purified water at a set concentration (w/w), and the samples were provided into the consumer panels by 10 mL each in a transparent plastic cup, and two samples were randomly assigned to select the sample felt sweeter, and based on this, the sample in which statistical equivalence occurred among overall differences between the samples was calculated as the sample concentration for final descriptive analysis.

physchem = conditions: distilled water, thermodynamic from solid

Compound: C=C1C[C@@]23CC[C@H]4[C@@](C)(CCC[C@@]4(C)C(=O)O[C@@H]4O[C@H](CO)[C@@H](O)[C@H](O)[C@H]4O)[C@@H]2CC[C@]1(O[C@@H]1O[C@H](CO)[C@@H](O)[C@H](O)[C@H]1O[C@@H]1O[C@@H](C)[C@H](O)[C@@H](O)[C@H]1O)C3 [Dulcoside A]
- production of the transglycosylated steviol glycoside, DSM20444 [1]: ○
- production of the transglycosylated steviol glycoside, CJST01 [2]: ○
- production of the transglycosylated steviol glycoside, CJST01 ([2]; listed as dulcoside A): had the transglycosylation activity

Compound: C=C1C[C@@]23CC[C@H]4[C@@](C)(CCC[C@@]4(C)C(=O)O[C@@H]4O[C@H](CO)[C@@H](O)[C@H](O)[C@H]4O)[C@@H]2CC[C@]1(O[C@@H]1O[C@H](CO)[C@@H](O)[C@H](O[C@@H]2O[C@H](CO)[C@@H](O)[C@H](O)[C@H]2O)[C@H]1O[C@@H]1O[C@H](CO)[C@@H](O)[C@H](O)[C@H]1O)C3 [Rebaudioside A, rebaudioside A]
- production of the transglycosylated steviol glycoside, DSM20444 [1]: ○
- production of the transglycosylated steviol glycoside, CJST01 [2]: ○
- production of the transglycosylated steviol glycoside, CJST01 ([2]; listed as rebaudioside A): had the transglycosylation activity
- Solubility ([3]; 10 °C): 5 mg/mL (≈ 5.17 mM)
- Solubility ([3]; 25 °C): 5 mg/mL (≈ 5.17 mM)
- Solubility ([3]; 40 °C): 6 mg/mL (≈ 6.2 mM)
- Solubility ([3]; 55 °C): 12 mg/mL (≈ 12.4 mM)

Compound: C=C1C[C@@]23CC[C@H]4[C@@](C)(CCC[C@@]4(C)C(=O)O[C@@H]4O[C@H](CO)[C@@H](O)[C@H](O)[C@H]4O[C@@H]4O[C@H](CO)[C@@H](O)[C@H](O)[C@H]4O)[C@@H]2CC[C@]1(O[C@@H]1O[C@H](CO)[C@@H](O)[C@H](O[C@@H]2O[C@H](CO)[C@@H](O)[C@H](O)[C@H]2O)[C@H]1O[C@@H]1O[C@H](CO)[C@@H](O)[C@H](O)[C@H]1O)C3 [Rebaudioside D, rebaudioside D]
- Solubility ([3]; 10 °C): 4 mg/mL (≈ 3.54 mM)
- Solubility ([3]; 25 °C): 1 mg/mL (≈ 0.886 mM)
- Solubility ([3]; 40 °C): 1 mg/mL (≈ 0.886 mM)
- Solubility ([3]; 55 °C): 2 mg/mL (≈ 1.77 mM)

Compound: C=C1C[C@@]23CC[C@H]4[C@@](C)(CCC[C@@]4(C)C(=O)O[C@@H]4O[C@H](CO)[C@@H](O)[C@H](O[C@@H]5O[C@H](CO)[C@@H](O)[C@H](O)[C@H]5O)[C@H]4O[C@@H]4O[C@H](CO)[C@@H](O)[C@H](O)[C@H]4O)[C@@H]2CC[C@]1(O[C@@H]1O[C@H](CO)[C@@H](O)[C@H](O[C@@H]2O[C@H](CO)[C@@H](O)[C@H](O)[C@H]2O)[C@H]1O[C@@H]1O[C@H](CO)[C@@H](O)[C@H](O)[C@H]1O)C3 [Rebaudioside M, rebaudioside M]
- Calculated concentration [4]: 0.0696%

Compound: C=C1C[C@@]23CC[C@H]4[C@@](C)(CCC[C@@]4(C)C(=O)O[C@@H]4O[C@H](CO)[C@@H](O)[C@H](O)[C@H]4O)[C@@H]2CC[C@]1(O[C@@H]1O[C@H](CO)[C@@H](O)[C@H](O)[C@H]1O)C3 [Rubusoside]
- production of the transglycosylated steviol glycoside, CJST01 [2]: ○
- production of the transglycosylated steviol glycoside, CJST01 ([2]; listed as rubusoside): had the transglycosylation activity

Compound: C=C1C[C@@]23CC[C@H]4[C@@](C)(CCC[C@@]4(C)C(=O)O)[C@@H]2CC[C@]1(O[C@@H]1O[C@H](CO)[C@@H](O)[C@H](O)[C@H]1O[C@@H]1O[C@H](CO)[C@@H](O)[C@H](O)[C@H]1O)C3 [Steviolbioside]
- production of the transglycosylated steviol glycoside, CJST01 [2]: ○
- production of the transglycosylated steviol glycoside, CJST01 ([2]; listed as steviolbioside): had the transglycosylation activity

Compound: C=C1C[C@@]23CC[C@H]4[C@@](C)(CCC[C@@]4(C)C(=O)O[C@@H]4O[C@H](CO)[C@@H](O)[C@H](O)[C@H]4O)[C@@H]2CC[C@]1(O[C@@H]1O[C@H](CO)[C@@H](O)[C@H](O)[C@H]1O[C@@H]1O[C@H](CO)[C@@H](O)[C@H](O)[C@H]1O)C3 [Stevioside, stevioside]
- production of the transglycosylated steviol glycoside, DSM20444 [1]: ○
- solubility at 4 days (physchem; 10 °C): 12 mg/mL (≈ 14.9 mM)
- solubility at 4 days (physchem; 25 °C): 21 mg/mL (≈ 26.1 mM)
- solubility at 4 days (physchem; 40 °C): 37 mg/mL (≈ 46 mM)
- solubility at 4 days (physchem; 55 °C): > 160 mg/mL
- production of the transglycosylated steviol glycoside, CJST01 [2]: ○
- production of the transglycosylated steviol glycoside, CJST01 ([2]; listed as stevioside): had the transglycosylation activity

Compound: Rebaudioside C
- production of the transglycosylated steviol glycoside, DSM20444 [1]: ○
- production of the transglycosylated steviol glycoside, CJST01 [2]: ○

Compound: Rebaudioside F
- production of the transglycosylated steviol glycoside, DSM20444 [1]: ○
- production of the transglycosylated steviol glycoside, CJST01 [2]: ○

Source: patent EP4707380A1, “LACTOBACILLUS MALI STRAIN AND USES THEREOF” (CJ Cheiljedang Corporation, priority 2023, dated 2024)
